Numbering of substitutions follows the chain as printed. These are yes or no findings as the source states them, for the method shown. Binding seen in cells or lysates may run through a third protein. Some results given as binding are weak or reduced against the parent protein; the word gives no strength. Tags and fused reporters may be left off the sequences shown.
Experiments:
Assay in all cases: pull-down; 5 ug GST-PLEKHA7 WW bait (E. coli) coupled to GSH-Sepharose beads, washed, incubated 1 h at 4 °C with normalized HEK cell lysate holding PDZD11-HA or CFP-HA; immunoblot with anti-HA; only the target purified
[1] = molecular target: T1, GST-PLEKHA7 WW1 + WW2 domain (1-162) V25A (human) (UniProt Q6IQ23)
T1 sequence: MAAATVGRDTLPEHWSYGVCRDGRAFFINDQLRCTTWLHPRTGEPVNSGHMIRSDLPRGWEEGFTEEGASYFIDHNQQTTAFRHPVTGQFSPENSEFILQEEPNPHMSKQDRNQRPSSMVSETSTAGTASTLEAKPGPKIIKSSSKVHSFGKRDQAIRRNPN

[2] = molecular target: T2, GST-PLEKHA7 (human) WW1 + WW2 domain (1-162), WT (human) (UniProt Q6IQ23)
T2 sequence: T1 sequence with A25V

[3] = molecular target: T3, GST-PLEKHA7 WW1 + WW2 domain (1-162) D30A + N76A (human) (UniProt Q6IQ23)
T3 sequence: T1 sequence with A25V, D30A, N76A

[4] = molecular target: T4, GST-PLEKHA7 WW1 + WW2 domain (1-162) T35A (human) (UniProt Q6IQ23)
T4 sequence: T1 sequence with A25V, T35A

[5] = molecular target: T5, GST-PLEKHA7 WW1 + WW2 domain (1-162), mutation within the WW2 domain at position 61 (human) (UniProt Q6IQ23)
T5 sequence: T1 sequence with A25V, E61A

[6] = molecular target: T6, GST-PLEKHA7 WW1 + WW2 domain (1-162) R33A + N76A (human) (UniProt Q6IQ23)
T6 sequence: T1 sequence with A25V, R33A, N76A

[7] = molecular target: T7, GST-PLEKHA7 WW1 + WW2 domain (1-162) W15A (human) (UniProt Q6IQ23)
T7 sequence: T1 sequence with W15A, A25V

[8] = molecular target: T8, GST-PLEKHA7 WW1 + WW2 domain (1-162) D74A (human) (UniProt Q6IQ23)
T8 sequence: T1 sequence with A25V, D74A

[9] = molecular target: T9, GST-PLEKHA7 WW1 + WW2 domain (1-162) L32A (human) (UniProt Q6IQ23)
T9 sequence: T1 sequence with A25V, L32A

Measured: binding

B1: PDZD11-HA (human) full-length (protein, UniProt Q5EBL8 1-140)
chain: MDSRIPYDDYPVVFLPAYENPPAWIPPHERVHHPDYNNELTQFLPRTITLKKPPGAQLGFNIRGGKASQLGIFISKVIPDSDAHRAGLQEGDQVLAVNDVDFQDIEHSKAVEILKTAREISMRVRFFPYNYHRQKERTVH
binds: all assays above

Source: PMC7363125
